Measured values published in patent publication US7144865B2, “Compositions and methods for treating obesity” (The United States of America as represented by the …, priority 2003, dated 2006).

Assay: Body weight and water intake in S-D rats treated with zinc or zinc plus CHP (FIGS. 4, 5, 9)
Details: normal weight 8 month old normal Sprague Dawley rats; FIG. 5

[Zn] [zinc]
body weight (changes): slightly affected
